Reference: publication PMC12136788
The other results are listed elsewhere or left out.

T1: UNK ZnF1-3 (human, UniProt Q9C0B0 31-174)
T1 sequence: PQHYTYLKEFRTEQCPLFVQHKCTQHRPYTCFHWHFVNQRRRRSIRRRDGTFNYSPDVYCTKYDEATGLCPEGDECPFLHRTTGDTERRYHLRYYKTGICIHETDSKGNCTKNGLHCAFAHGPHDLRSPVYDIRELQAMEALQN

B1: chrX:98862621:98862622:+_ENSMUSG00000034160_ENSMUST00000044475|mus_hu|mus_mus_mus_hu_False|28_78 (ssRNA)
RNA: GGGAGUUCUACAGUCCGACGAUCCUGCAUCUCCUUUAGAGUGUUUCCCAUAUUAGAAUAAGCAUCAGCAAAGGUAGGACUGAUUCGAAUAGCCUCCUUAUAAUGCAUCAGUGCUUCCUGCAGUUUUCCCUGCUGCUGCAGUACCAACAGAGGAUUGAGCAUCA
B2: chr2:155843326:155843327:+_ENSMUSG00000005881_ENSMUST00000006035|mus_hu|FALSE|FALSE (ssRNA)
RNA: GGGAGUUCUACAGUCCGACGAUCUUGGUCGCCCAACAGCCCAUUGGCAACCUUCUCAUGUCUGGUCACAGAGAACUGAUUUGUCCUCAGUACCUCUCCGUCCACCUUCAUGUACACAGUGGGCACCACCUUCACAAAGUACUGCAACAGAGGAUUGAGCAUCA
B3: chr12:39756943:39756944:-_ENSG00000139116_ENST00000544797|hu_mus|hu_hu_hu_mus_False|1_78 (ssRNA)
RNA: GGGAGUUCUACAGUCCGACGAUCGGUUUGGCUGUUACCCCCAAGGGAAUCCUGCAAUAGUCUUGUUAGCUUAGAGUCUCUGUAAGGGACAUGGGUGGCUCUCUUGCUCUUGUCCCCCAAGGCGCUGAUUACAUUCCCAAGUGCCAACAGAGGAUUGAGCAUCA
B4: chr2:198367945:198367946:+_ENSG00000115541_ENST00000409468|hu_hu|motif|central (ssRNA)
RNA: GGGAGUUCUACAGUCCGACGAUCGCCAUUUCAAUAGUGACUUAUUUCAGUCUACGUACUUUCCAAGAAUGUCACCAUCUCGGAAUAGGAAAUAAUCCUGCAAGUGAAAAAAACCAUUAGUUAAGACAACUAAUUGCAAAUAUCCAACAGAGGAUUGAGCAUCA
B5: chr5:132409753:132409754:+_ENSG00000170606_ENST00000304858|hu_mus|motif|central (ssRNA)
RNA: GGGAGUUCUACAGUCCGACGAUCUUUAUUAAAUGCACAUACAGAAACUUGAUAGGCAGAAUGUCCCAUAUCUACAAAAACGGCAUUUCUUGGUUUUUCUUCUAAGGCAGGAAGGUCUUGUUUAUAGAUUCCAUAAGCAAGAGCCAACAGAGGAUUGAGCAUCA
B6: chr3:122261000:122261001:-_ENSMUSG00000039735_ENSMUST00000162409|mus_mus|FALSE|FALSE (ssRNA)
RNA: GGGAGUUCUACAGUCCGACGAUCGUAAUCUUCAAAUGGAAAGUCUCCUGGAGGUUCAAAGCCAGACUUGAAGGAGUCUACUACCAUUUGAGAAUCUCUUCUUUCAUCAACUGAUUUUGCUGCAAGAAUCAUUCCUUCUAAACACAACAGAGGAUUGAGCAUCA
B7: 37285371_37286376_123_CDS_ENSMUSG00000066798_ENSMUST00000053098|mouse|control|control (ssRNA)
RNA: GGGAGUUCUACAGUCCGACGAUCCUGUAGGACCACAUCUCCUUGCUGUUCAAACUGGAAGUGUAGAACAUCAGACUCAGCAGCCAUGGUCACGAUCGACUAGCAAAACUGGCUUUGAGGCUUCCGCGGCAAUGGCAGCCCAGGCAACAGAGGAUUGAGCAUCA
B8: chr11:4127340:4127341:+_ENSG00000167325_ENST00000300738|hu_mus|hu_hu_hu_mus_False|38_88 (ssRNA)
RNA: GGGAGUUCUACAGUCCGACGAUCGGCAUAGUCAGGGUGCUUCGUGGUCAAGGUUGCGGCUGUCUCAGCAGCCAGGGUGUCCAGUUCCACUGUGGUGACCCCACUGUAUAGGCCUUGGAUUACUUUCAUGGUGAUCUGAGCAGGCAACAGAGGAUUGAGCAUCA
B9: chr6:150114741:150114742:+_ENSG00000120265_ENST00000367380|hu_mus|FALSE|FALSE (ssRNA)
RNA: GGGAGUUCUACAGUCCGACGAUCCCCCGAGGACAGGAGCAUUGGGUCAUCCUUUUUGACAUUAGUUAUUGAGUCAUCUACUAGUUCUUUAAUGUGAUCAAUUCCAAUGACUUUUCCACUAUUUCCAACCAUCCGUGCAAAACACAACAGAGGAUUGAGCAUCA
B10: chr4:138441076:138441077:-_ENSG00000189184_ENST00000507846|hu_mus|motif|central (ssRNA)
RNA: GGGAGUUCUACAGUCCGACGAUCGGAUAAAUCAGACAAAAUUGCAGUAACAAAAAAAGUGACUUUAUAAAUGUUCAUAUGCGGAAAAUACAAGCAAAACUGUGAUAGCAUGCACAAGAGACAAAAGCUAAAGGUGAAUAAUUACAACAGAGGAUUGAGCAUCA
B11: chr2:178096590:178096591:-_ENSG00000116044_ENST00000397062|hu_mus|FALSE|FALSE (ssRNA)
RNA: GGGAGUUCUACAGUCCGACGAUCGAGGAUGCUGCUGAAAGAAUCCUCAAAACCAUGAAGGAAAUGUGGACCACAGUUGCCCACUUCUUUUUCCAGCGAGGAGAUCGAUGAGUAAAAAUGGUAAUUGCUGUCCAUUUCUGUCAGCAACAGAGGAUUGAGCAUCA
B12: chr15:59961163:59961164:-_ENSG00000140299_ENST00000607373|hu_hu|motif|central (ssRNA)
RNA: GGGAGUUCUACAGUCCGACGAUCGCCAACGUAUUCCAUGGGGACAAGUUCUGCUAGUUCUGCCAAAUUAAACACGUAUCGGAUUUUUUGGCUGAAUUUCGAGCUAAUAAAUGGUCUUGUAACAGCCAGAAGUGUUCUGAUAAACAACAGAGGAUUGAGCAUCA
B13: chr12:15822463:15822464:-_ENSMUSG00000020601_ENSMUST00000020922|mus_mus|motif|central (ssRNA)
RNA: GGGAGUUCUACAGUCCGACGAUCAAAAGGAUCAAGAAGGGAGGGGACCCGUCUGGGGCUCCGUGGAGGAAGAGUUAAGAACGGGCCCCCAGAUGGGCGCUGCAGGGCUGGUCCCCGGCUGCGAGCCCCGCUCCCGGGGGUGCUCAACAGAGGAUUGAGCAUCA
B14: chr2:216981417:216981418:+_ENSG00000079246_ENST00000392132|hu_hu|hu_hu_hu_mus_True|68_108 (ssRNA)
RNA: GGGAGUUCUACAGUCCGACGAUCCUGAUACUGAUCCUUGCCAGCAAGGGCAUUAUCAGUGCCAUCUGUACCAAACAGGACUAACGCAAUCUCAUCUUUGCUCUCCGAAAAUACCUGUCGUUGGACAAACAUAGUCAUCACUUUCAACAGAGGAUUGAGCAUCA
B15: chr14:31077228:31077229:+_ENSG00000092140_ENST00000206595|hu_mus|FALSE|FALSE (ssRNA)
RNA: GGGAGUUCUACAGUCCGACGAUCAGUUGCAGAAUCUAUCUUGAUUAUAAUCUGUGCAACAUCAAUGUCUGAUACAUCAUCCAAAGUUGGUAGAGUAUUUUCUGGUCCAUAAGCAAGGCAGUUAAACAAGGUUUCAGAAAAGAACAACAGAGGAUUGAGCAUCA
B16: chr3:131208901:131208902:-_ENSG00000114686_ENST00000264995|hu_hu|FALSE|FALSE (ssRNA)
RNA: GGGAGUUCUACAGUCCGACGAUCUGUUAUAUUAAAGAUUUUAACUGUCUGUUUCGGCGGCAAUCCAAGUUCCCGGUAAAAUUCCAAUAUGGAUGUAGCUUUACGAAAACGUGAUACAGUUUUUCCUCCUACAGACAGGGUUGCCAACAGAGGAUUGAGCAUCA
B17: chr20:52831857:52831858:+_ENSG00000101132_ENST00000441080|hu_mus|FALSE|FALSE (ssRNA)
RNA: GGGAGUUCUACAGUCCGACGAUCCAGCAUGAUGUCAUCACAGGCGUCCUCUAAGUUCUGGAGAUGUUUCUUCUUCACUUCUAUUUCCUCCUUUAGCUCUGUGAUUCGACUCGUAUUCCGAGCAAAUUUGUUUAUUUUUUGCUGCAACAGAGGAUUGAGCAUCA
B18: chr3:41268740:41268741:+_ENSG00000168036_ENST00000349496|perfect_dup|FALSE|FALSE (ssRNA)
RNA: GGGAGUUCUACAGUCCGACGAUCCACUCUGCUUGUGGUCCACAGUAGUUUUUCGUAAGUAUAGGUCCUCAUUAUAUUUACUAAAGCUUGGGGUCCACCACUAGCCAGUAUGAUGAGCUUGCUUUCUUGGUUGCCAUAAGCUAACAACAGAGGAUUGAGCAUCA
B19: 186303460_186303580_5415_CDS_ENSG00000047410_ENST00000367478|human|control|control (ssRNA)
RNA: GGGAGUUCUACAGUCCGACGAUCCUGUGAUUCCACUUGUGUAGUGGGCAUCACUGUAGCUGUUGGGGUAGUAGUGGGAUUUGUAACAGUUGCAGGUGUAACCAUUGGGCGGAUACUAGCCCUGGGUGUUGACUUAUUUCCAGCCAACAGAGGAUUGAGCAUCA
B20: chr12:16048344:16048345:+_ENSG00000023734_ENST00000419869|hu_hu|motif|central (ssRNA)
RNA: GGGAGUUCUACAGUCCGACGAUCAGAUCGUCCAUAAGUUAUAACCAAAAUCUCUCCCUCAGGAAUAUAUUCCAUACGGCGGACAGACAUAUUAAAAUUUAGAGAUUUCACUUCUGUCAUAGUAGCAUGAUCCCAAAGUCGAACCAACAGAGGAUUGAGCAUCA
B21: 64147695_64148393_1994_CDS_ENSG00000143952_ENST00000409558|human|control|control (ssRNA)
RNA: GGGAGUUCUACAGUCCGACGAUCGAAUGUUUCCAUUAAUCUAGAAAGUGUUAUGAAUUCCAUGGAAUUUAGCUUCUCAAGAAAACCAUCCUUUGCUCUUGACAUGAGAAAUUUGACAGCUCGAUCAUGGCAUAUAUCUGAGGCCAACAGAGGAUUGAGCAUCA
B22: chrX:153608698:153608699:+_ENSG00000102119_ENST00000428228|hu_mus|motif|central (ssRNA)
RNA: GGGAGUUCUACAGUCCGACGAUCUAAAGAAGAGAAAAUGUCAUCACGCACCUGGUGAUGGAAGGUAUCAGCAUCGGCAAGUGAGGUCCCCGGCUGGCGGAAGCUCUUGGACAUGCCCACAGACUCAGGCUCCCCGUAUGUCUUCAACAGAGGAUUGAGCAUCA

What follows are binders tested against T1, UNK ZnF1-3 (assay: nsRBNS (natural sequence RNA bind-n-seq); RBNS binding buffer (assumed for nsRBNS): 25 mM Tris pH 7.5, 150 mM KCl, 3 mM MgCl2, 0.01% Triton X-100, 500 ug/ml BSA, 20 U/ml SUPERase-In, 4 C; UNK is unkempt and MSI1 is Musashi-1; names of the RNAs are library labels; protein concentration not given here; high values mean tight binding).

Binder	binding signal [enrichment R]
B1	0.995
B2	1.03
B3	0.601
B4	0.501
B5	0.764
B6	0.872
B7	1.21
B8	0.912
B9	1.05
B10	2.52
B11	0.808
B12	0.915
B13	0.933
B14	0.709
B15	1.29
B16	1.04
B17	0.323
B18	1.19
B19	0.808
B20	1.38
B21	0.905
B22	1.4
